# Measurements published in the supplement of paper PMC10037445.
# The full ranking holds about 2,900 compounds; the median of “NF-kB SEAP reporter activity, fold change vs agonist alone” is about 0.99, and the highest 2% start at about 2.6. The list shows a part of the results.
# How the values were obtained:
# RAW-Dual [1] = experiment: NF-kB SEAP reporter activity, fold change vs agonist alone; higher = enhanced NF-kB activity; conditions: library stock concentration (final ~1000-fold dilution): 10 mM
# Outline: (§1)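 RAW-Dual macrophages (50,000 cells/well in DMEM, 384-well plates) received 50 nL of library stock by pin tool, then a PRR agonist 1 h later, and were kept at 37 °C, 5% CO2. After 20 hours, supernatant was read for IRF by QuantiLuc luminescence and for NF-κB by QuantiBlue absorbance at 620 nm. Reporter activity is fold change over agonist-alone wells. Cytotoxic wells had IncuCyte confluency below 70% of agonist controls in both mask sets.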
# RAW-Dual [2] = experiment: NF-kB SEAP reporter activity, fold change vs agonist alone; cytotoxicity flag (confluency mask): not cytotoxic; higher = enhanced NF-kB activity
# Outline: as §1
# RAW-Dual [3] = experiment: NF-kB SEAP reporter activity, fold change vs agonist alone; cytotoxicity flag (confluency mask): cytotoxic (confluency <70% of control); higher = enhanced NF-kB activity
# Outline: as §1
# [4] = cytotoxicity flag (confluency mask): not cytotoxic, agonist: Imiquimod (TLR7) […]
# [5] = cytotoxicity flag (confluency mask): not cytotoxic, agonist: MPLA (TLR4) […]
# [6] = agonist: ODN 1826 (TLR9) 0.5 ug/mL
# [7] = agonist: Pam2CSK4 (TLR2/6) 0.1 ug/mL
# [8] = agonist: Pam3CSK4 (TLR2/1) 0.1 ug/mL
# [9] = cytotoxicity flag (confluency mask): cytotoxic (confluency <70% of control), agonist: Imiquimod (TLR7) […]
# [10] = cytotoxicity flag (confluency mask): cytotoxic (confluency <70% of control), agonist: MPLA (TLR4) […]
smiles,measurement,setting,value
COc1cc2nccc(Oc3ccc(NC(=O)c4cn(C(C)C)c(=O)n(-c5ccc(F)cc5)c4=O)cc3F)c2cc1OC,NF-kB SEAP reporter activity,RAW-Dual [1]; [4],0.658
same,NF-kB SEAP reporter activity,RAW-Dual [1]; [5],0.63
OCC1OC(O)CC(O)C1O (stereo not drawn),NF-kB SEAP reporter activity,RAW-Dual [1]; [5],1.07
OCC1OC(O)CC(O)C1O (stereo not drawn) (library stock concentration (final ~1000-fold dilution): 10 mM),NF-kB SEAP reporter activity,RAW-Dual [2]; agonist: LPS (TLR4) 0.1 ug/mL,1.33
same,NF-kB SEAP reporter activity,RAW-Dual [2]; [6],1.1
same,NF-kB SEAP reporter activity,RAW-Dual [2]; [7],1.4
same,NF-kB SEAP reporter activity,RAW-Dual [2]; [8],1.04
CCCCOc1c(C(=O)c2c(F)cc(C)cc2F)cnc2[nH]ncc12,NF-kB SEAP reporter activity,RAW-Dual [1]; [4],1.58
same,NF-kB SEAP reporter activity,RAW-Dual [1]; [5],1.55
CCCCOc1c(C(=O)c2c(F)cc(C)cc2F)cnc2[nH]ncc12 (library stock concentration (final ~1000-fold dilution): 10 mM),NF-kB SEAP reporter activity,RAW-Dual [2]; agonist: LPS (TLR4) 0.1 ug/mL,0.894
same,NF-kB SEAP reporter activity,RAW-Dual [2]; [6],1.15
same,NF-kB SEAP reporter activity,RAW-Dual [2]; [7],1.8
same,NF-kB SEAP reporter activity,RAW-Dual [2]; [8],1.94
Nc1nc2c(cnn2CCc2ccccc2)c2nc(-c3ccco3)nn12,NF-kB SEAP reporter activity,RAW-Dual [1]; [4],1.34
same,NF-kB SEAP reporter activity,RAW-Dual [1]; [5],1.38
Nc1nc2c(cnn2CCc2ccccc2)c2nc(-c3ccco3)nn12 (library stock concentration (final ~1000-fold dilution): 10 mM),NF-kB SEAP reporter activity,RAW-Dual [2]; agonist: LPS (TLR4) 0.1 ug/mL,1.57
same,NF-kB SEAP reporter activity,RAW-Dual [2]; [6],1.28
same,NF-kB SEAP reporter activity,RAW-Dual [2]; [7],1.2
same,NF-kB SEAP reporter activity,RAW-Dual [2]; [8],1.87
CNC(=O)c1c(F)cccc1Nc1nc(Nc2cc3c(cc2OC)CCN3C(=O)CN(C)C)nc2[nH]ccc12,NF-kB SEAP reporter activity,RAW-Dual [1]; [9],1.33
same,NF-kB SEAP reporter activity,RAW-Dual [1]; [10],1.08
CNC(=O)c1c(F)cccc1Nc1nc(Nc2cc3c(cc2OC)CCN3C(=O)CN(C)C)nc2[nH]ccc12 (library stock concentration (final ~1000-fold dilution): 10 mM),NF-kB SEAP reporter activity,RAW-Dual [3]; agonist: LPS (TLR4) 0.1 ug/mL,0.959
same,NF-kB SEAP reporter activity,RAW-Dual [3]; [6],0.373
same,NF-kB SEAP reporter activity,RAW-Dual [3]; [7],0.22
same,NF-kB SEAP reporter activity,RAW-Dual [3]; [8],1.05
Cc1cccc(C)c1OCC(C)N.Cl (stereo not drawn),NF-kB SEAP reporter activity,RAW-Dual [1]; [4],0.972
same,NF-kB SEAP reporter activity,RAW-Dual [1]; [5],1.12
Cc1cccc(C)c1OCC(C)N.Cl (stereo not drawn) (library stock concentration (final ~1000-fold dilution): 10 mM),NF-kB SEAP reporter activity,RAW-Dual [2]; agonist: LPS (TLR4) 0.1 ug/mL,1.37
same,NF-kB SEAP reporter activity,RAW-Dual [2]; [6],0.887
same,NF-kB SEAP reporter activity,RAW-Dual [2]; [7],1.19
same,NF-kB SEAP reporter activity,RAW-Dual [2]; [8],1.03
O=C(/C=C/c1cccc(S(=O)(=O)Nc2ccccc2)c1)NO (library stock concentration (final ~1000-fold dilution): 10 mM),NF-kB SEAP reporter activity,RAW-Dual [3]; agonist: LPS (TLR4) 0.1 ug/mL,5.83
same,NF-kB SEAP reporter activity,RAW-Dual [3]; [6],2.3
same,NF-kB SEAP reporter activity,RAW-Dual [3]; [7],0.848
same,NF-kB SEAP reporter activity,RAW-Dual [3]; [8],1.76
O=C(/C=C/c1cccc(S(=O)(=O)Nc2ccccc2)c1)NO,NF-kB SEAP reporter activity,RAW-Dual [1]; [9],2.39
same,NF-kB SEAP reporter activity,RAW-Dual [1]; [10],2.58
CN(C)C(=O)/C(C#N)=C/c1ccc(-c2nc3cnc4[nH]ccc4c3n2C2CCCCC2)o1 (library stock concentration (final ~1000-fold dilution): 10 mM),NF-kB SEAP reporter activity,RAW-Dual [2]; agonist: LPS (TLR4) 0.1 ug/mL,0.46
same,NF-kB SEAP reporter activity,RAW-Dual [2]; [6],0.729
same,NF-kB SEAP reporter activity,RAW-Dual [2]; [7],0.315
same,NF-kB SEAP reporter activity,RAW-Dual [2]; [8],0.52
CN(C)C(=O)/C(C#N)=C/c1ccc(-c2nc3cnc4[nH]ccc4c3n2C2CCCCC2)o1,NF-kB SEAP reporter activity,RAW-Dual [1]; [4],0.765
same,NF-kB SEAP reporter activity,RAW-Dual [1]; [5],0.698
COc1ccc2c(OC3CC4C(=O)NC5(C(=O)NS(=O)(=O)C6CC6)CC5/C=C\CCCCN(C)C(=O)C4C3)cc(-c3nc(C(C)C)cs3)nc2c1C (stereo not drawn),NF-kB SEAP reporter activity,RAW-Dual [1]; [5],1.03
COc1ccc2c(OC3CC4C(=O)NC5(C(=O)NS(=O)(=O)C6CC6)CC5/C=C\CCCCN(C)C(=O)C4C3)cc(-c3nc(C(C)C)cs3)nc2c1C (stereo not drawn) (library stock concentration (final ~1000-fold dilution): 10 mM),NF-kB SEAP reporter activity,RAW-Dual [2]; agonist: LPS (TLR4) 0.1 ug/mL,3.16
same,NF-kB SEAP reporter activity,RAW-Dual [2]; [6],0.926
same,NF-kB SEAP reporter activity,RAW-Dual [2]; [7],0.842
same,NF-kB SEAP reporter activity,RAW-Dual [2]; [8],0.952
CC(C)(C)c1cc(NC(=O)Nc2ccc(-c3cn4c(n3)sc3cc(OCCN5CCOCC5)ccc34)cc2)no1,NF-kB SEAP reporter activity,RAW-Dual [1]; [4],1.62
same,NF-kB SEAP reporter activity,RAW-Dual [1]; [5],1.76
CC(C)(C)c1cc(NC(=O)Nc2ccc(-c3cn4c(n3)sc3cc(OCCN5CCOCC5)ccc34)cc2)no1 (library stock concentration (final ~1000-fold dilution): 10 mM),NF-kB SEAP reporter activity,RAW-Dual [2]; agonist: LPS (TLR4) 0.1 ug/mL,1.64
same,NF-kB SEAP reporter activity,RAW-Dual [2]; [6],2
same,NF-kB SEAP reporter activity,RAW-Dual [2]; [7],1.32
same,NF-kB SEAP reporter activity,RAW-Dual [2]; [8],1.4
CN1CCN(c2ccc(-c3cccc(CN4CCOCC4)c3)cc2NC(=O)c2c[nH]c(=O)cc2C(F)(F)F)CC1 (library stock concentration (final ~1000-fold dilution): 10 mM),NF-kB SEAP reporter activity,RAW-Dual [2]; agonist: LPS (TLR4) 0.1 ug/mL,1.11
same,NF-kB SEAP reporter activity,RAW-Dual [2]; [6],0.188
same,NF-kB SEAP reporter activity,RAW-Dual [2]; [7],1.21
same,NF-kB SEAP reporter activity,RAW-Dual [2]; [8],1.24
CN1CCN(c2ccc(-c3cccc(CN4CCOCC4)c3)cc2NC(=O)c2c[nH]c(=O)cc2C(F)(F)F)CC1,NF-kB SEAP reporter activity,RAW-Dual [1]; [4],0.971
same,NF-kB SEAP reporter activity,RAW-Dual [1]; [5],0.997
N#C/C(=C(/N)Sc1ccc(N)cc1)c1ccccc1C(F)(F)F (library stock concentration (final ~1000-fold dilution): 10 mM),NF-kB SEAP reporter activity,RAW-Dual [2]; agonist: LPS (TLR4) 0.1 ug/mL,0.379
same,NF-kB SEAP reporter activity,RAW-Dual [2]; [6],0.387
same,NF-kB SEAP reporter activity,RAW-Dual [2]; [7],0.133
same,NF-kB SEAP reporter activity,RAW-Dual [2]; [8],0.245
N#C/C(=C(/N)Sc1ccc(N)cc1)c1ccccc1C(F)(F)F,NF-kB SEAP reporter activity,RAW-Dual [1]; [4],0.337
same,NF-kB SEAP reporter activity,RAW-Dual [1]; [5],0.401
CN(C)CCCN1c2ccccc2CCc2ccc(Cl)cc21.Cl (library stock concentration (final ~1000-fold dilution): 10 mM),NF-kB SEAP reporter activity,RAW-Dual [2]; agonist: LPS (TLR4) 0.1 ug/mL,1.39
same,NF-kB SEAP reporter activity,RAW-Dual [2]; [6],0.785
same,NF-kB SEAP reporter activity,RAW-Dual [2]; [7],1.07
same,NF-kB SEAP reporter activity,RAW-Dual [2]; [8],0.772
CN(C)CCCN1c2ccccc2CCc2ccc(Cl)cc21.Cl,NF-kB SEAP reporter activity,RAW-Dual [1]; [4],0.58
same,NF-kB SEAP reporter activity,RAW-Dual [1]; [5],0.661
COc1cc2nc(N3CCN(C(=O)C4COc5ccccc5O4)CC3)nc(N)c2cc1OC (stereo not drawn),NF-kB SEAP reporter activity,RAW-Dual [1]; [4],1.23
same,NF-kB SEAP reporter activity,RAW-Dual [1]; [5],1.28
COc1cc2nc(N3CCN(C(=O)C4COc5ccccc5O4)CC3)nc(N)c2cc1OC (stereo not drawn) (library stock concentration (final ~1000-fold dilution): 10 mM),NF-kB SEAP reporter activity,RAW-Dual [2]; agonist: LPS (TLR4) 0.1 ug/mL,1.07
same,NF-kB SEAP reporter activity,RAW-Dual [2]; [6],0.178
same,NF-kB SEAP reporter activity,RAW-Dual [2]; [7],1.09
same,NF-kB SEAP reporter activity,RAW-Dual [2]; [8],1.32
